Some of the results follow.
test system: PfHDP1 homeodomain (GST-tagged); test: gcPBM binding intensity (ln(normalized median fluorescence intensity)); higher = stronger DNA binding
Outline: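 GST-fused DNA-binding domains of P. falciparum, expressed in E. coli, were applied at about 25 μg on average for 1 h to an Agilent 4 × 180k array of primer-extended double-stranded 36-bp intergenic genomic probes and negative controls. Binding intensity is the highest Masliner-normalised natural-log median intensity across replicate spots of either probe orientation, measured with Alexa488 anti-GST antibody and a 488 nm scan.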

| Sequence | gcPBM binding intensity (ln) |
| --- | --- |
| AAAATATTTCATATATGTACTTAAAAAAAAAAAAAA [XGTACX_site5399] | 6.47 |
| TATTATATATATGTTGACATATTTGTACACTCCACT [TGCATGCA_negctrl_site200] | 6.92 |
| GAATATATAAGATACACACACAAATTAAATATAAAA [CACACA_site2781] | 6.97 |
| AAAAAATTCATATATACACACACGCACATATATATA [CACACA_site4226] | 7.05 |
| AAAAAAAAAAAAAACACACACACACGCATAAATATA [CACACA_site6217] | 6.82 |
| CACTTTTCTGGAAAAATTCCCACATTTTTTTATTAA [GTGCAC_negctrl_site322] | 6.29 |
| GTACAAAAAAAAATAAAATACATATATATATATATA [GTGCAC_negctrl_site364] | 9.29 |
| GGGCATATAATATAAAGTACAGGACTATAAAAATAT [XGTACX_site4481] | 6.28 |
| TATTATATGTATTGCACACCTTCAACAACTACTTCT [CACACA_site655] | 10.6 |
| ATATCTATAATAAACACACACATATACCTATAGGTA [CACACA_site7596] | 6.86 |
| ATTGTGCACTTATATGCACACATTTTAGTTTTTTTT [CACACA_site2028] | 11.5 |
| TATATATAGAAACACACACACATATATATATATTTT [CACACA_site2540] | 6.81 |
| TATATATTATAAAATAGTACACAGAATTTAAATATA [XGTACX_site100] | 6.57 |
| TCTTTTAAACAGTACACACACACATATATATATATA [CACACA_site924] | 9.27 |
| AATATTTTTTTATAAACACACATATAAATAAATATA [CACACA_site7622] | 6.46 |
| TTGTTGATTGTTATTTATCATTAGATGTAAAATATG [CACACA_negctrl_site927] | 6.35 |
| GTTATAAAATATGGCACACAAAATGTAAGTAAATGA [CACACA_site1458] | 6.79 |
| ATATATTTTGTTATGGTGCGTAAGAAATATATTCTT [GTGCAC_site9825] | 7.37 |
| GATCTTTAAATTTATTGTACATAAATGTATATGTTA [XGTACX_site1107] | 6.53 |
| TTTATTTATCTGAACACATGCAGACAAATAACATAT [TGCATGCA_site929] | 6.47 |
| TATCACATATTATGATGTACAAGGATTCTGACTAAT [XGTACX_site1196] | 6.21 |
| CATAAACTTTATAACACACACTTATAAATATAAATA [CACACA_site6646] | 6.6 |

| Sequence | gcPBM binding intensity (ln) |
| --- | --- |
| ATTATATATAAACACACACACATGCATGCACATATA [CACACA_site4237] | 10.5 |
| TTTTTTTATATTTTTAGTACACATTGGTATATATAT [XGTACX_site4114] | 6.77 |
| TATTTTTTTAAAAATACACACATAAAATCATGAAAA [CACACA_site1085] | 6.63 |
| ATATATATATGTCAAAGTACTAAAAATATATACATA [XGTACX_site3397] | 8.32 |
| TTATGAAATAGAATAACACACATATTTATATATGTG [CACACA_site2050] | 6.2 |
| CATAGAATAATTTATTGTACGTGCATGCTATTTTTT [XGTACX_site8984] | 8.38 |
| AAAATAAATTTTTATGTTATATATACAATTTCTCTA [CACACA_negctrl_site1760] | 6.22 |
| AATGCTATCTTCTTATTTTTCATACACAACATGAAC [CACACA_negctrl_site1809] | 7.04 |
| TATAATATTTATATAACACACATATATATTTATTTA [CACACA_site280] | 6.34 |
| TATACATTTTTATAAAGTACACAAAAATAAATATAA [XGTACX_site1647] | 6.42 |
| AAACAGAATACATATACACACATACAAAAAAGTGCA [CACACA_site8235] | 6.69 |
| ATTAAATATATGATGTGTACATATTCGTGTATGTTT [XGTACX_site2141] | 6.51 |
| TTTTAATAATTTATAAAAAAAAAAAAAAAATAAATA [TGCATGCA_negctrl_site419] | 5.98 |
| TTTAATGAAAGAAACACATACGTATCAAAATATATG [TGCATGCA_negctrl_site510] | 6.68 |
| TACGTTGTATATTTTTGTACATATTGAATTACAAAA [XGTACX_site5906] | 6.44 |
| AATAAAATATAATAATTAATATATATATATATATAA [GTGCAC_negctrl_site457] | 6.61 |
| TTATGTTGTAAATACACACATACATATACATACACA [CACACA_site733] | 6.96 |
| TATGTGAAATAAGGATGTACAATTTTGATTTCCCCA [XGTACX_site8389] | 6.82 |
| GTGTACAAAATATGGTAATAAAGTAGTTACATGAAT [CACACA_negctrl_site1775] | 6.81 |
| CTAAATTGTTAATAGAGTACATTTGTATAATATAAG [XGTACX_site594] | 6.44 |
| AAAGCAAATAATAAGTGTACGGGTCAATATATGCGT [XGTACX_site1519] | 6.81 |
| CATATAAACAATAACACACACCTAGGTACATGGAAA [CACACA_site4615] | 6.69 |

| Sequence | gcPBM binding intensity (ln) |
| --- | --- |
| CTTTTTAATTTATCGACACACGCATGAATAGAAATT [CACACA_site9112] | 6.32 |
| TTCATATGGAATAAAAGTACGTATTAAAACAATTTT [XGTACX_site8742] | 6.54 |
| GAACAATATATTTGCACACAAAAAATATATATTTAT [CACACA_site3317] | 10.7 |
| GAATACTCATTTCTTTGTACATATATATGTGTATTT [XGTACX_site6411] | 6.71 |
| TAGATTTAAAAAAAAAAAAAATTTTTTTTTTTTTTT [TGCATGCA_negctrl_site593] | 5.94 |
| ATACAAGTATTAATTACACACTCAAAAAGAAAAAAC [CACACA_site5287] | 6.75 |
| GGATAAAAAATATGTACACACATATAGATATCTATA [CACACA_site2693] | 6.45 |
| GTTTACATCATTCTGGTGCAAAAAAAAAAAAAAATA | 10.5 |
| CATAAGAGGAACTTTTGTACTTATATGTATATAGTA [XGTACX_site5836] | 5.9 |
| TATATCGTTATATAAACACACAATATGTTTTTTATA [CACACA_site7730] | 6.33 |
| CTTTTATGAAACAGTGCACACATAAAAATATATACA [CACACA_site8981] | 9.92 |
| GCCACACTTTTCTGCACACATAAAAAATATATAAAT [CACACA_site578] | 8.9 |
| AAAAAAAAAAAAAAAACACACATTTGAAAGAAAGAA [CACACA_site3339] | 6.72 |
| TACACCCATGGACACACACACACGCATAAAAAAAAA [CACACA_site4933] | 6.86 |
| ATTTTTATTTTCTTTACACACCACATAATTTTTTTT [CACACA_site6092] | 7.2 |
| ATATATAATATATATGCATGTGACATTAATAATATA [TGCATGCA_site880] | 6.6 |
| ATATGAAAGGTGTACACACGCACACCCAAAAAAATA [CACACA_site2911] | 6.86 |
| TAATTTAAAAATATAAATGTTTCACTTATATATTTT [TGCATGCA_negctrl_site399] | 5.97 |
| AACTGAGAAACCGAAGTGCAATATGTATATATACAT | 9.08 |
| CCACACTTAAAATACACACACACCAAAAAAAAAAAA [CACACA_site2709] | 6.83 |
| ATTTATTGACTATTTACACACATATTTATTAGAATA [CACACA_site6863] | 6.74 |
| GGGAGGATAGTTCACAGTACCCAGTAACTCTACGGA [XGTACX_site2558] | 6.32 |

| Sequence | gcPBM binding intensity (ln) |
| --- | --- |
| ATGATACATAAAGAATATAAAACATGAAATATAATA [CACACA_negctrl_site1461] | 6.49 |
| TTTTTGTTTTTTTTTTGTACATATATATAAAAAATA [XGTACX_site1214] | 6.45 |
| TTTTTTTTAATATTTTACATTGTCTGTTAACAAATA [CACACA_negctrl_site599] | 6.45 |
| AACACTTTAATTTATGCACACATATGGAACAACAGC [CACACA_site8241] | 10.2 |
| AGATATATATTTTATTGTACACATTAAAGTATAAAA [XGTACX_site7194] | 6.3 |
| AACATTTTTAGATTATATTATTAAATAAGTAACTGC [XGTACX_negctrl_site326] | 6.36 |
| TATGTATTTATATATACACACTTCTGTGATACGAAA [CACACA_site5128] | 6.68 |
| AAGTTTTTTATTTTTTGTACATAAAAAATAATAATT [XGTACX_site1755] | 6.23 |
| TTTATATTTATCCAAAGTACTTTTTAAAAACATACC [XGTACX_site4518] | 6.47 |
| ATGAACATTTATAAATGTACTCACATATATATATTT [XGTACX_site6692] | 6.51 |
| ATTAAAAATAAGAAGAGTACATATAATATATATACA [XGTACX_site3092] | 6.12 |
| ACCTTTTGGATTATATGTACATATATATATATATAT [XGTACX_site2687] | 9.17 |
| TTAAAAAGAAAGTTCACACACATATATATGACGGAA [CACACA_site2602] | 6.78 |
| AAAATAATATTTAATACACACATAATTATAATATAA [CACACA_site782] | 6.64 |
| ATTTTTAATTGAATCACACATTTCCTTTCTTTTGTG [CACACA_site4438] | 6.55 |
| ATATTATTTTAAAGTACACACATATATTGATATATA [CACACA_site7153] | 6.72 |
| TTTTTCATTTAACAGAAGGGAGATAAAAAAAAAAAA [TGCATGCA_negctrl_site261] | 6.49 |
| GTATGTATGTATGTATGTACGTATGTATGTATATAT [XGTACX_site3369] | 7.57 |
| AATAATTATAAAAAATGTACAAAAAAAAAAAAAAAA [XGTACX_site3681] | 6.33 |
| AGAATACATCTATGAACACACAGAGTTTTAAAAAAT [CACACA_site5514] | 6.18 |
| ATACTAAATATAAATTGTACTTTATTTATATTGAGA [XGTACX_site8699] | 6.18 |
| GCAAATCATGCTATGGTGCATATGTAAGATGAGCAT | 10.4 |
